Experimental data reported in the supplement of paper PMC12217912.
The list shows a part of the results. Sequences were assembled here from the parent chain. Values near 0.05 are background.

B1: TEV protease; numbered along this chain (parent)
chain: MGESLFKGPRDYNPISSSICHLTNESDGHTTSLYGIGFGPFIITNKHLFRRNNGTLVVQSLHGVFKVKDTTTLQQHLVDGRDMIIIRMPKDFPPFPQKLKFREPQREERICLVTTNFQTKSMSSMVSDTSCTFPSGDGIFWKHWIQTKDGQCGSPLVSTRDGFIVGIHSASNFTNTNNYFTSVPKNFMELLTNQEAQQWVSGWRLNADSVLWGGHKVFMVKPEEPFQPVKEATQL

Variants of: B1
Assay: raw area under fraction-flipped curve 0-4 h after induction (AUC4h, not background-subtracted), DNA-recorder readout of cleavage of the substrate (dimensionless); higher = more cleavage of the substrate by the protease variant
Settings: temperature: 34 °C; time window: 0-4 h after rhamnose induction
Procedure: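 In vivo DNA recorder in E. coli TOP10(DE3) ΔrhaA at 34 °C. Each TEVp single-site mutant (parent TEVp 0) is paired with a single-site variant of the 7-mer TEVs (canonical ENLYFQ|S). The substrate sits between flexible linkers in a Bxb1-sfGFP-TEVs-SsrA fusion, so cleavage stabilises Bxb1 and speeds flipping of a recombination array, read by NGS. The value is the raw area under the fraction-flipped curve over 0-4 h after rhamnose induction (AUC4h), with ≥20 reads per time point. It is not background-subtracted; inactive controls average about 0.047.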
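Also: Bxb1 expression induced with 0.2% (w/v) L-rhamnose at OD600 near 0.5, cultures sampled hourly, flipped fraction per protease–substrate barcode pair counted by paired-end Illumina sequencing.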

Variant	area with substrate ENLAFQS	area with substrate ENLDFQS	area with substrate ENLFFQS	area with substrate ENLHFQS	area with substrate ENLKFQS	area with substrate ENLNFQS	area with substrate ENLRFQS	area with substrate ENLSFQS	area with substrate ENLVFQS	area with substrate ENLEFQS	area with substrate ENLGFQS	area with substrate ENLLFQS	area with substrate ENLPFQS	area with substrate ENLQFQS	area with substrate ENLTFQS	area with substrate ENLWFQS	area with substrate ENLCFQS	area with substrate ENLMFQS	area with substrate ENLIFQS
V220A	0.0555	0.0689	0.0725	0.0546	0.0706	0.0641	0.0755	0.0439	0.0491	–	–	–	–	–	–	–	–	–	–
E195F	0.0625	0.0588	0.104	–	0.062	–	–	0.0651	0.0798	0.0488	0.0471	0.062	0.04	0.0822	0.0644	0.0558	–	–	–
V183F	0.0691	0.0709	0.0756	0.0752	–	0.0755	0.0802	0.0651	0.082	0.0599	–	–	0.0705	–	0.07	0.0577	0.0526	–	–
V165F	0.0504	0.0599	–	0.0524	0.0603	–	–	–	–	0.0424	–	–	0.0674	–	–	–	–	0.0499	–
V165S	0.0416	0.0571	0.0322	–	0.0538	0.0638	–	0.0575	0.0697	0.0484	0.0635	–	0.031	0.0399	–	–	0.0565	–	–
S169R	0.0725	0.0714	0.0746	0.0563	0.0638	0.0627	0.0655	0.0623	–	0.0603	–	–	0.0559	0.0521	–	0.0468	–	–	0.0833
F187N	0.0572	0.0545	0.0874	0.0501	0.0509	0.0491	0.0498	0.0441	–	–	0.0551	–	0.058	0.0516	–	0.0861	0.0475	–	0.0528
F187H	0.0665	0.0591	–	0.0597	0.0657	0.07	–	0.0536	0.063	0.0581	–	0.0567	0.0602	0.0688	–	0.0691	0.0626	–	–
N206T	0.0701	0.0484	–	0.0534	0.0797	0.0701	–	–	–	0.0607	–	0.0878	0.0513	–	–	–	–	–	0.0862
D149N	0.0633	–	0.111	0.0539	0.0618	0.0634	0.0674	0.0552	–	0.073	–	–	0.0607	–	0.0557	–	–	0.0753	0.0875
D149K	0.0592	0.0622	–	0.0644	0.0545	0.0808	0.0669	–	–	0.0718	0.0764	–	0.0474	0.0922	–	–	0.063	–	–
G166N	0.0606	–	0.0616	0.0564	0.0615	0.0488	0.0315	0.0495	–	0.0494	–	0.0493	0.0611	–	–	–	–	0.0721	–
G166P	0.0351	0.0505	0.0684	0.0472	0.0622	–	0.0698	0.0498	–	0.0395	0.0576	0.0551	0.0432	0.0621	–	–	–	–	0.06
Q151P	0.0627	0.0436	0.056	–	0.0535	–	0.0495	0.059	–	0.0632	0.0669	–	0.064	0.0427	0.0742	–	–	–	0.0631
Q151C	0.0702	0.0616	0.0858	0.0688	0.0801	0.0696	0.0461	0.0698	0.0854	0.0553	0.059	0.0783	–	0.0628	–	0.0706	–	0.0616	0.063
N175D	0.0568	0.0609	0.0705	0.0242	0.0729	0.0779	0.0629	0.0538	–	–	0.0743	–	0.0588	0.0628	–	0.0656	0.0566	–	0.0621
N175Y	0.0802	0.0696	0.081	–	0.0678	0.0683	–	0.0664	–	–	–	0.0805	0.0579	0.0544	0.0642	0.0531	–	–	–
A196Q	0.0577	0.0557	0.0891	0.0784	0.0853	0.0355	–	0.0637	0.0942	0.0632	–	0.0885	0.073	0.0699	–	–	0.0561	–	0.0939
A196H	0.0766	0.065	0.0779	0.0683	0.0702	0.0631	0.0566	0.0532	0.0807	0.0641	0.058	0.0659	0.0625	–	–	–	0.0468	0.072	0.0833
A196M	0.0698	0.0554	0.109	0.0841	0.0658	0.0645	0.0824	–	–	0.0665	0.0486	–	0.0589	0.0635	0.078	–	0.0782	–	0.114
W199D	0.0618	0.066	0.0485	–	0.0644	0.0644	–	0.0834	0.0638	0.0631	–	0.0683	0.0777	0.0594	–	0.0745	0.0747	0.0618	0.0664
W203C	0.06	0.0722	0.065	0.0621	0.0702	0.059	0.0811	–	0.0577	0.0581	0.0634	0.0597	0.0418	0.0701	–	0.0571	0.0756	0.0555	0.0554
H215E	0.0687	0.0699	0.0532	0.0594	0.0517	0.0714	0.0453	0.0562	–	–	–	–	0.0326	–	–	0.0705	0.0547	–	–
H215R	0.0538	–	0.0654	–	0.0631	0.0578	–	–	–	–	–	–	0.0566	0.0601	–	0.0465	0.0326	–	0.0548
P155C	0.0589	0.0605	0.083	0.0607	0.0718	0.058	–	0.0653	–	0.0681	0.079	0.0042	0.0581	–	–	–	–	0.0731	–
I145Y	0.058	–	0.0624	–	0.0729	0.059	0.0597	0.0706	–	0.0656	–	–	0.0619	0.0522	–	–	0.0636	0.0618	0.0554
A207V	0.0462	0.0646	0.0854	0.0803	0.0809	0.0668	0.0734	0.0669	0.0897	0.0601	–	0.0761	0.062	0.0378	–	0.0606	–	0.0638	0.0608
